We go through 90 compounds from PMC4336329 (PLoS ONE, 2015).

Hit rate of the full screen: of about 310,000 compounds, about 2,200 (0.71%) showed an effect of 50% or more. Effects have a minus sign here. This is one part of the list.

The test deals with human ether-à-go-go-related gene (hERG) potassium channel (human, UniProt Q12809). Briefly: primary screen, population patch clamp on CHO cells stably expressing hERG.
human ether-à-go-go-related gene (hERG) potassium channel, sequence (Q12809 whole entry, looked up): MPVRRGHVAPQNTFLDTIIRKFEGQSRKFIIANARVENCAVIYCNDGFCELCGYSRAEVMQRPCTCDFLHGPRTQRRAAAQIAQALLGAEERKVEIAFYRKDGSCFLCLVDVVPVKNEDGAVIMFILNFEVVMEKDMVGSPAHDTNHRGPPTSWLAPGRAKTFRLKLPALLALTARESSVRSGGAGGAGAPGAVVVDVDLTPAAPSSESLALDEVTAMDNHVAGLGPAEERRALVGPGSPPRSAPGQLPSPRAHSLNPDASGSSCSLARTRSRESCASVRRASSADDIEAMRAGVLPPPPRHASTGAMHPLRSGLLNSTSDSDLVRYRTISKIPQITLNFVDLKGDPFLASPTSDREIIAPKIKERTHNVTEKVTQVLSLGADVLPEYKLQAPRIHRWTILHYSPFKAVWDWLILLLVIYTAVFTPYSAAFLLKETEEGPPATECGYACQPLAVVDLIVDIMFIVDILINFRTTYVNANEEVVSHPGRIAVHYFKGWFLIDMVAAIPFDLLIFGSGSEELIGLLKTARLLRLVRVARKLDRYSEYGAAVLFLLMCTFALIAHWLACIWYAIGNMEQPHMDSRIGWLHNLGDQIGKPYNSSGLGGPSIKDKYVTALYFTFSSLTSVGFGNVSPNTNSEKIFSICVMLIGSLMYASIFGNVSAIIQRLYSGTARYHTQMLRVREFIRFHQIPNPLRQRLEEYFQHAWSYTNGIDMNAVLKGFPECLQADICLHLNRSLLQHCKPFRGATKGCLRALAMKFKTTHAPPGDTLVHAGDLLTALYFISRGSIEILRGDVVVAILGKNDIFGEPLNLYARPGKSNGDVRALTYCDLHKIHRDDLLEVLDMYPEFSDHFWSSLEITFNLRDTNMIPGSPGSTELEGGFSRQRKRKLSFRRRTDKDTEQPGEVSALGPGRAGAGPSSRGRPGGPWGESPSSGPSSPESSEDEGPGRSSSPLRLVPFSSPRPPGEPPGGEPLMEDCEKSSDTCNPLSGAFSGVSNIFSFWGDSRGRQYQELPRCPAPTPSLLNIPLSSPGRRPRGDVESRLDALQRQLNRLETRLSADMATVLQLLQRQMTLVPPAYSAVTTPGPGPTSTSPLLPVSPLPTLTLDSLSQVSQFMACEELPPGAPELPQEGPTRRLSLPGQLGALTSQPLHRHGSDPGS
With `CCCc1c(O)nc(SCC(=O)NCCc2ccc(OC)c(OC)c2)[nH]c1=O`, the “hERG current change (%, negative = inhibition) at 1uM” value worked out at 7.06%.
As for `Cc1ccccc1CN1CCN(C(=O)c2cccc(F)c2)CC1`, the figure is 7.86%.
As for `Cc1nnc(SCC(=O)Nc2nnc(-c3ccccc3)o2)s1`, the figure is 9.86%; as for `CC(C)CC(NC(=O)c1ccccc1)C(=O)OCC(=O)Nc1ccc(S(N)(=O)=O)cc1` (stereo not drawn), 5.8%.
As for `CC(=O)N(C)c1ccc(N=Cc2c(O)ccc3ccccc23)cc1`, the figure is 6.92%.
On to `C1=Cc2ccccc2Nc2ccccc21`, for which the “hERG current change (%, negative = inhibition) at 1uM” value stood at 15.9%.
With `O=C(O)c1cc2cc(Oc3ccccc3)ccc2[nH]1`, the “hERG current change (%, negative = inhibition) at 1uM” value is given as 12.5%.
As to `C=CCNC(=S)Nc1ccc(Cl)cc1`, the “hERG current change (%, negative = inhibition) at 1uM” value stood at 11.3%.
The result for `O=C(COC(=O)CNS(=O)(=O)c1ccc(Br)cc1Cl)NC1CCCC1` reads 1.96%; that for `CN(c1ccccc1C(=O)Nc1ccc(F)c(F)c1)S(C)(=O)=O`, 7.39%.
As for `O=C(Nc1cccs1)Nc1c(F)cc(F)cc1Br`, the figure is 15.6%.
As for `Cc1ccc(-c2c(C(=O)O)c(C(=O)O)c3n2CCC3)cc1`, the figure is 23.9%; as for `Nc1ccccc1SCC(=O)N1CCc2ccccc21`, 3.11%.
Regarding `CCc1noc(C)c1C(=O)OCC(=O)N(C)c1c(N)n(Cc2ccccc2)c(=O)[nH]c1=O`, the “hERG current change (%, negative = inhibition) at 1uM” value is listed as -3.92%.
The result for `Nc1nonc1-n1nnc(C(=O)N/N=C/c2cccc(O)c2)c1CN1CCCC1` reads 11%; that for `COc1cc(C(=O)NNC(=O)c2ccco2)cc(OC)c1OC`, 14%; that for `CCC(=O)c1cn(CC(=O)Nc2cccc(C)c2C)c2ccccc12`, 3.88%.
As for `Cc1ccnc(NC(=O)c2ccc3c(c2)OCO3)c1`, the figure is 0.644%; as for `Nc1cc(=O)[nH]c(SCC(=O)Nc2ccc(Br)cc2)n1`, 10.9%.
Turning to `COc1ccc([N+](=O)[O-])cc1NC(=O)CCSCCc1ccccn1`, the “hERG current change (%, negative = inhibition) at 1uM” value is -1.8%.
As for `CC(C)COc1ccc(C(=O)NC(Cc2c[nH]c3ccccc23)C(=O)NN)cc1` (stereo not drawn), the figure is 20.5%.
As for `CCN1CCN(C(=O)CCNC(=O)Cn2ccc3ccccc3c2=O)CC1`, the “hERG current change (%, negative = inhibition) at 1uM” value was 11.6%.
As for `Cc1cccnc1NC(=O)CN1C(=O)COc2ccc(Cl)cc21`, the figure is 11.4%; as for `COc1ccccc1CNC(=O)CCNS(=O)(=O)c1cccc2nsnc12`, 6.11%.
Regarding `O=C(CCc1ccccc1)NNc1cc(N2CCCCC2)nc(N2CCCCC2)n1`, the “hERG current change (%, negative = inhibition) at 1uM” value was found to be 8.66%.
Regarding `O=C(Nc1ccc(F)cc1)c1ccc(C(=O)N2CCOCC2)cc1`, the “hERG current change (%, negative = inhibition) at 1uM” value worked out at 9.78%.
As for `C=CCOc1ccc(/C=N/NC(=O)C(=O)Nc2ccccn2)cc1OC`, the figure is -17.8%.
The result for `COc1cccc(CN(CC2CCCO2)S(=O)(=O)c2ccc(S(=O)(=O)NCC3CCCO3)cc2)c1OC` (stereo not drawn) reads 1.47%.
`CC1(C)CC2CC(C)(CN2C(=O)COc2cccc3ccccc23)C1` (stereo not drawn): the “hERG current change (%, negative = inhibition) at 1uM” value was 1.41%.
As for `Cn1nccc1C(=O)NC1CCCc2c1cnn2-c1cc(F)cc(F)c1` (stereo not drawn), the figure is 1.03%; as for `COc1ccc(/C=C2\SC(=S)N(CC(=O)OCC(=O)Nc3ccc(C)cc3Cl)C2=O)cc1`, 10.9%.
As for `CC(=O)Nc1cccc(/C(C)=N/NC(=O)c2ccc(Cl)cc2Cl)c1`, the figure is 7.02%; as for `O=C(N=C1SC2CS(=O)(=O)CC2N1Cc1ccc(Cl)cc1)C1CC1` (stereo not drawn), 16.1%.
For the compound `C/C(=N/NS(=O)(=O)c1ccccc1)c1ccc(NC(=O)C(F)(F)F)cc1`, the “hERG current change (%, negative = inhibition) at 1uM” value came out at 2.19%.
The result for `CCOc1cc(C(=O)N2CCN(c3ccc(C(C)=O)cc3)CC2)cc(OCC)c1OCC` reads -8.84%; that for `CCOc1cccc(CN2CCC(n3nccc3NC(=O)C3CCCC3)CC2)c1`, -42.6%; that for `CSc1ccc(/C=C(/NC(=O)c2ccc(C)cc2)C(=O)Nc2cccc(F)c2)cc1`, 13.5%.
With `CC(CC(=O)NC1CCCC1)c1ccccc1` (stereo not drawn), the “hERG current change (%, negative = inhibition) at 1uM” value is recorded as -0.0392%.
For `CCOC(=O)N1CCC(NC(=O)C2CCCN(c3nc4ccccc4o3)C2)CC1` (stereo not drawn), the “hERG current change (%, negative = inhibition) at 1uM” value is -8.44%.
The result for `O=C(CCn1nnc2ccccc21)N/N=C\Cc1ccccc1` reads 8.76%; that for `CCCCOc1ccc(C(NC(=O)OCC)NC(=O)OCC)cc1`, 15.2%; that for `COc1ccc(CCNC(=O)C2(C)CCC(=O)N2CCC(C)C)cc1OC` (stereo not drawn), -7.9%.
Consider `Cc1cc(C)c2c(c1)C(=O)/C(=C/c1ccc(C(=O)O)cc1)CC2`, for which the “hERG current change (%, negative = inhibition) at 1uM” value was 16.6%.
As for `COC(=O)c1cc(S(=O)(=O)NCC2CCN(Cc3ccc(Cl)cc3)CC2)c[nH]1`, the figure is -59.6%.
As for `CC(=O)NC1N=C(C)N(c2ccccc2)C1=O` (stereo not drawn), the figure is -2.75%; as for `Cc1nnc(SCC(=O)Nc2ncc(Cl)cc2Cl)n1Cc1ccccc1`, -0.0814%.
As for `CCOc1ccccc1C(=O)NCCc1cnc[nH]1`, the figure is 14.7%; as for `Cc1ccc(Cl)cc1NC(=O)COC(=O)CC1CCCCC1`, 13.7%; as for `Cc1ccc(CN2CCN(CCC(C)C)C(CCO)C2)s1` (stereo not drawn), -1.86%.
For the compound `Cc1ccc(CNC(=S)NCc2ccncc2)cc1`, the “hERG current change (%, negative = inhibition) at 1uM” value is -6.94%.
The result for `O=C(NCc1ccccc1)c1nc(S(=O)(=O)Cc2ccccc2)ncc1Cl` reads 9.48%.
The result for `COc1ccc(OC)c(C(c2nnnn2CCc2ccccc2)N2CCN(c3ccccc3)CC2)c1` (stereo not drawn) reads 0.508%; that for `O=C(O)CCCN1C(=O)/C(=C/c2ccc(-c3nc4ccccc4s3)o2)SC1=S`, 16.2%.
As for `COc1ccc(NC(=O)CC2C(=O)N(c3cccc(OC)c3)C(=O)N2C(C)C)cc1` (stereo not drawn), the figure is -4.65%; as for `Cc1nnc(SCC(=O)Nc2ccc3c(c2)OCCO3)n1CC1CCCO1` (stereo not drawn), 0.653%; as for `COC(=O)c1cccc(S(=O)(=O)N2CCCCC2)c1`, 0.121%.
As to `COc1cccc(C2=CC(c3cccc(OC)c3OC(F)F)n3nnnc3N2)c1` (stereo not drawn), the “hERG current change (%, negative = inhibition) at 1uM” value was 11.2%.
The result for `CC1CCN(C(=O)COC(=O)c2ccc(F)c(S(=O)(=O)N3CCOCC3)c2)CC1` reads 22.9%; that for `COc1ccc(/C=N/Nc2ncnc(Cl)c2N)cc1OC`, 8.48%.
With `COc1ccc(-c2cc(=O)c3c(O)cc(O)cc3o2)cc1`, the “hERG current change (%, negative = inhibition) at 1uM” value was determined as 12.6%.
Turning to `COc1ccc(-c2cc(C)no2)cc1S(=O)(=O)N1CCN(C(=O)c2ccco2)CC1`, the “hERG current change (%, negative = inhibition) at 1uM” value is recorded as 5.94%.
The result for `Cc1ccc(NNC(=O)c2ccno2)cc1C` reads 9.92%; that for `NS(=O)(=O)c1ccc(N/N=C/c2ccc(C(=O)O)cc2)c([N+](=O)[O-])c1`, 3.6%.
The result for `COc1ccc(N(CC(=O)NC(C)c2ccccc2)S(=O)(=O)c2c(C)noc2C)cc1` (stereo not drawn) reads 9.76%; that for `O=C(Oc1ccc(Br)cc1)c1cccc(S(=O)(=O)N2CCOCC2)c1`, -3.81%; that for `O=c1cc(N2CCN(Cc3ccccc3)CC2)[nH]c(=O)n1-c1ccc(Br)cc1`, 1.5%.
For `CC(C)(C)C(=O)NC1CCN(S(=O)(=O)c2ccc(C(F)(F)F)cc2)CC1`, the “hERG current change (%, negative = inhibition) at 1uM” value is -11.7%.
As for `CC(=O)Oc1ccc(C23CC4CC(CC(C4)C2)C3)cc1C(=O)O`, the figure is 7.6%; as for `CCCC(=O)Nc1ccc(Oc2ccc(NC(=O)CCC)cc2)cc1`, -5.63%.
With `Cc1ccc(-c2n[nH]c(=S)n2/N=C\c2ccco2)cc1`, the “hERG current change (%, negative = inhibition) at 1uM” value is given as 11.1%.
As for `CSc1nc(-c2ccccc2)nc(C(Cl)Cl)n1`, the figure is 9.44%; as for `COc1cc([N+](=O)[O-])ccc1NC(=S)Nn1cnnc1`, 16%.
As for `COc1ccc(OC)c2[nH]c(=O)c(CCNS(=O)(=O)c3ccc(F)cc3)cc12`, the figure is 8.18%; as for `CSC1=C(C#N)C(C)CC(=O)N1` (stereo not drawn), -0.693%.
With `CCOC(=O)C1=C(C)N(C)C(C)=C(C(=O)OCC)C1c1ccncc1`, the “hERG current change (%, negative = inhibition) at 1uM” value came to 10.5%.
In the case of `CCN1CCN(c2cc(C)c3cc(NC(=O)c4cccs4)ccc3n2)CC1`, the “hERG current change (%, negative = inhibition) at 1uM” value is recorded as 4.54%.
As for `O=C(c1ccccc1Cl)N1CCN(c2ccccn2)CC1`, the figure is 9.94%.
As for `CCN(CC(=O)N1CCC(C(N)=O)CC1)S(=O)(=O)c1ccc(Cl)cc1`, the figure is 15.1%; as for `COc1ccccc1N(CC(=O)NCC1CCCO1)C(=O)CNS(=O)(=O)c1ccc(C)cc1` (stereo not drawn), 11.8%; as for `CC(C)C(C(=O)Nc1nccs1)N1C(=O)c2ccccc2C1=O` (stereo not drawn), 20%.
As for `Cc1[nH]c(=O)c(C(=O)/C=C/c2ccccc2F)c2c1CCCC2`, the figure is 3.24%; as for `O=[N+]([O-])c1cc(C(F)(F)F)ccc1N1CCN(CCO)CC1`, 0.0037%.
As for `Cc1cc(C)nc(NC(=O)C2c3ccccc3Oc3ccccc32)n1`, the “hERG current change (%, negative = inhibition) at 1uM” value came out at 8.2%.
`CCOC(=O)C1CCN(S(=O)(=O)c2cc(C(=O)OC)n(C)c2)CC1`: the “hERG current change (%, negative = inhibition) at 1uM” value worked out at 6.73%.
The result for `COc1cccc(OC)c1C(=O)NN1CCCCC1` reads 2.06%.
As for `COC(=O)c1ccc(C2C(C(=O)c3ccco3)=C(O)C(=O)N2c2cc(C)on2)cc1` (stereo not drawn), the figure is 9.37%; as for `COC(=O)C1=C(CCc2ccccc2)NC(=O)NC1c1ccc([N+](=O)[O-])cc1` (stereo not drawn), 0.491%; as for `COCCNC(=O)CN(Cc1ccc2c(c1)OCO2)C(=O)CCC(=O)Nc1nccs1`, 8.29%.
The result for `O=C(C1CC1)N(CCN(C(=O)C1CC1)c1ccccc1)c1ccccc1` reads 9.4%.
With `O=C(O)c1cc(N/N=C/c2ccc(OCc3ccccc3)cc2)ccc1Cl`, the “hERG current change (%, negative = inhibition) at 1uM” value is -1.85%.
